The full ranking holds about 110,000 compounds; the median of “z-score” is about -0.1, and the highest 2% start at about 2. The list shows a part of the results. Activity calls are given as the source filed them.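 How the source made its calls: active means z-score in the third read window above 3 or below -3; inactive means the rest.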
What follows are compounds tested against Metabotropic glutamate receptor 8 (Rattus norvegicus) (UniProt P70579) (assay: mGluR8 Gi/Go-coupled signaling modulation – cell-based, rat, thallium flux, HTS, primary screen (AID 488969)). Conditions: HEK293 rat mGluR8, GIRK (G protein-gated inwardly rectifying potassium channel) thallium flux, FluoZin2; at 10 µM; stronger effect = higher value; submaximal glutamate (EC20) added with thallium.
Sequence of UniProt P70579 (P70579 whole entry, looked up): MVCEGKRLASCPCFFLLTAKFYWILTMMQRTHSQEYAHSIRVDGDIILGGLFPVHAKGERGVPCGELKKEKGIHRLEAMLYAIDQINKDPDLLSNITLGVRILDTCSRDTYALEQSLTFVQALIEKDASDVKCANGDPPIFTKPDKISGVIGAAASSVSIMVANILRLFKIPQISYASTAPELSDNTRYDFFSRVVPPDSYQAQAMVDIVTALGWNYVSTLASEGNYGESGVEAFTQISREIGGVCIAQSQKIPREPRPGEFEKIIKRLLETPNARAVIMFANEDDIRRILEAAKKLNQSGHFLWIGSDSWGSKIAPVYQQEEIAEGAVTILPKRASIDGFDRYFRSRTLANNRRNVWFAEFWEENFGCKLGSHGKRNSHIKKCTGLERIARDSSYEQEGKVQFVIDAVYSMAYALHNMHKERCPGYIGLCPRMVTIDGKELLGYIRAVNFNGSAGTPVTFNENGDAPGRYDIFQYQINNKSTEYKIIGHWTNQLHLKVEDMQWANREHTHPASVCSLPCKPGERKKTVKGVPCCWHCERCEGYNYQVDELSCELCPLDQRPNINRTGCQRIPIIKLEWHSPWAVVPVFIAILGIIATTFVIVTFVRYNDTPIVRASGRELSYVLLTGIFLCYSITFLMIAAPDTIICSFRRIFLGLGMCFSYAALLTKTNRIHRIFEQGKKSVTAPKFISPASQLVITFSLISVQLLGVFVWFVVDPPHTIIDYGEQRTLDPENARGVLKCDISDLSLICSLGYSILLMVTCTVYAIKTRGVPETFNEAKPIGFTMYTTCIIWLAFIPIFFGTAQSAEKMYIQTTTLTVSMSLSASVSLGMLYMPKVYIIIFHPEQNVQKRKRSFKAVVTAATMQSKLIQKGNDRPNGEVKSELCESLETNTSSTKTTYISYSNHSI

| SMILES | z-score |
| --- | --- |
| N#Cc1c(C(F)(F)F)cc(-c2cccs2)nc1SCc1cccnc1 | -0.248 |
| Cc1oc(-c2ccccc2Cl)[n+]([O-])c1C | -0.0205 |
| CCC1(O)CC(C(=O)OC)=NN1C(=O)c1ccccc1 (configuration not stated) | 0.602 |
| O=C(Nc1ccccc1C(=O)N/N=C/c1ccco1)c1ccccc1 | active: 3.37 |
| Cc1[nH]c2ccccc2c1Cc1nnc(SCc2ccccc2)o1 | 0.39 |
| O=C(Nc1ccc([N+](=O)[O-])cn1)c1cc(-c2cccc(Br)c2)nc2ccccc12 | 0.61 |
| CCSc1nnc(NC(=O)CC)s1 | active: 5.27 |
| COC(=O)c1[nH]c2ccccc2c1NC(=O)CCN1CCSCC1 | -0.0198 |
| CCOc1c2ccc(C(=O)NCc3cc(C(F)(F)F)cc(C(F)(F)F)c3)cc2nn1C | 0.112 |
| Cc1noc(C)c1COc1cccc(C(=O)NCc2cccc(Cl)c2)c1 | -0.712 |
| O=C(CSc1nccc(=O)[nH]1)Nc1ccc(Br)c(Cl)c1 | -1.92 |
| Cc1cccc2c(CC(=O)O)noc12 | 0.0167 |
| O=C(OCC(F)(F)F)c1cccc(COc2ccc3ccccc3c2)c1 | -0.207 |
| Cc1ccc(-n2ncc3c(=O)n(CC#N)cnc32)cc1 | 0.402 |
| CCCCNC(=O)Nc1cc(C(=O)OC)ccc1Cl | -0.138 |
| CN1C(=O)c2ccccc2C(C(=O)O)C1c1cccc(F)c1 (configuration not stated) | -0.178 |
| CNC(=S)NNC(=O)c1cccn(Cc2ccc(Cl)cc2Cl)c1=O | -0.0869 |
| Cc1ccnn2c(-c3ccccc3)c3c(=O)n(C)c(=O)n(C)c3c12 | 0.00226 |
| Fc1cccc(CSc2ccc(-c3ccco3)nn2)c1 | -0.249 |
| CC(C)Sc1nc(-c2ccccc2)cc(=O)[nH]1 | -0.232 |
| Cc1ccc2c(c1)NC(=O)C(CC(=O)NCCCN1CCc3ccccc3C1)O2 (configuration not stated) | -0.518 |
| CCc1ccc(C(=O)COC(=O)C(CCSC)NC(=O)C23CC4CC(CC(C4)C2)C3)cc1 (configuration not stated) | -0.0604 |
| COc1ccccc1NC(=O)c1ccccc1NC(=O)c1cc(Cl)ccc1NC(=O)c1ccco1 | 0.0353 |
| CCN(CC)CCCN1C(=O)C(O)=C(C(=O)c2sc(C)nc2C)C1c1ccco1 (configuration not stated) | -0.418 |

| SMILES | z-score |
| --- | --- |
| CCn1c(C)nc2cc(-c3nnc(-c4c(-c5ccccc5)noc4C)o3)ccc21 | -1.45 |
| CSc1cccc(NC(=O)CN(C)S(=O)(=O)c2ccc(C)cc2)c1 | -0.0574 |
| Cc1cc(=O)n(CNC(=O)c2ccccc2)c(=S)[nH]1 | -0.214 |
| COc1cc(/C=N/Nc2nn3cnnc3c3ccccc23)cc(OC)c1OC | -0.0927 |
| Cc1cc(O)c(/C=N/Nc2ccc(Cl)cc2)c(=O)o1 | 0.289 |
| Cc1cc(NC(=O)/C=C/c2ccccc2)no1 | -0.0449 |
| CCC(=O)Nc1c(-c2cccs2)c(=O)c2ccccc2n1C | -0.205 |
| COc1ccc(/C=C/c2nc(-c3ccccc3O)n[nH]2)cc1OC | -0.135 |
| Oc1ccccc1-c1nc(N2CCN(Cc3ccccc3)CC2)c2ccccc2n1 | 0.428 |
| CCN1CCN(C(=O)C(C)N(c2ccc(C)cc2)S(C)(=O)=O)CC1 (configuration not stated) | 1.05 |
| Fc1ccc(COc2ccc(Br)cc2CNCc2ccncc2)cc1 | -0.78 |
| CCOC(=O)c1cccc(Nc2nc(C)cc(C)n2)c1 | 0.076 |
| S=c1[nH]nc(-c2ccc3ccccc3n2)n1-c1ccccc1Cl | 0.0824 |
| CN=C(C)C1=C(O)C(C(=O)OC)C(C)(C)CC1=O (configuration not stated) | 1.07 |
| CCc1ccccc1NC(=O)CN1C(=O)C2CCCN2c2ncc(Cl)cc21 (configuration not stated) | 0.0582 |
| CN(C)c1ccc(P(=O)(Nc2ccc([N+](=O)[O-])cc2)N2CCOCC2)c(NC(=O)c2cccs2)c1 (configuration not stated) | -0.185 |
| Cc1ccc(Nc2nnc(SCc3ccccc3)s2)cc1 | -0.106 |
| Cc1cc(Cl)ccc1N1C(=O)CC(NNC(=O)c2cccnc2)C1=O (configuration not stated) | -0.296 |
| Cc1cc(C)c(OCCCCn2cnc3ccccc3c2=O)c(C)c1 | -0.191 |
| Cn1c(=O)c2c(nc(NCC3CCCO3)n2C)n(C)c1=O (configuration not stated) | 0.315 |
| C=CCn1c(-c2ccc(N)cc2)nc2ccccc21 | -0.275 |
| CCOCCCn1c(=O)c(NC(=O)c2ccc(OCC)cc2)c2n(c1=S)CCCCC2 | -0.297 |
| CCOC(=O)C1CCN(c2ccc(C(N)=O)cc2[N+](=O)[O-])CC1 | -0.277 |
| COc1ccccc1-c1nc(-c2cccc(C)c2)no1 | -0.469 |

| SMILES | z-score |
| --- | --- |
| Cc1ccc(C2(C)NC(=O)N(CC(=O)NCc3cccs3)C2=O)cc1 (configuration not stated) | -0.0552 |
| CSc1ccc(C#N)cc1NC(=O)c1ccc(Cl)cc1Cl | 0.0336 |
| Clc1ccc(-n2ncc3c(NCCN4CCOCC4)ncnc32)cc1 | -0.298 |
| O=C1C2CC=CCC2C(=O)N1CC1CCCO1 (configuration not stated) | 0.809 |
| Cc1sc(NC(=S)NC(=O)c2cccs2)nc1-c1ccc(CC(C)C)cc1 | 0.117 |
| Cc1cc(NC(=O)CN2C(=O)NC3(CCCCC3)C2=O)no1 | 0.0457 |
| C/C(=N/NC(=O)c1cccs1)c1ccco1 | 0.507 |
| CS(=O)(=O)c1ccc2nc(NC(=O)C3COc4ccccc4O3)sc2c1 (configuration not stated) | 0.303 |
| CCOc1ccc(Nc2oc(-c3cccc(Cl)c3)nc2C#N)cc1 | -0.0538 |
| Cc1ccc(Nc2nc(COC(=O)COc3ccc(C=O)cc3)cs2)cc1 | -0.821 |
| CCOc1cc(C(=O)N/N=C/C2CC=CCC2)cc(OCC)c1OCC (configuration not stated) | -0.357 |
| COc1ccc(C(=O)Nc2nc(-c3ccc(OC)cc3)c(-c3ccc([N+](=O)[O-])cc3)s2)cc1 | -0.987 |
| COc1cc(/C=N/NC(=S)N/N=C/c2cc(OC)c(OC)c(OC)c2)cc(OC)c1OC | -0.0296 |
| CSc1cccc(NS(=O)(=O)c2ccc(F)cc2)c1 | -0.177 |
| Cc1cccc(-c2nnc(SCc3ccccc3)o2)c1 | 0.697 |
| Cc1cc(N2C(=O)CC(N3CCN(C(c4ccccc4)c4ccccc4)CC3)C2=O)no1 (configuration not stated) | -0.103 |
| Cc1ccc(/C=N/Nc2ccnc3cc(Cl)ccc23)c(C)c1 | -0.412 |
| CCN(CC)C(=O)CSc1nc2ccccc2c(=O)n1CCC(=O)NCc1ccc(F)cc1 | -0.611 |
| NC(=O)CSc1nnc(Cc2csc(Nc3ccc(F)cc3)n2)n1Cc1ccccc1 | -0.594 |
| Cc1cc(NC(=O)Cn2cnc3c(cnn3C(C)(C)C)c2=O)no1 | 0.423 |
| C=CCSc1nnc(Cc2cc(=O)[nH]c(=O)[nH]2)n1-c1cc(C)ccc1C | -0.111 |
| COC(=O)c1ccc(N2C(=O)CC(NCc3ccccc3)C2=O)cc1 (configuration not stated) | 0.444 |
| COCc1cc(/C=N\NC(=O)c2ccc(Cl)cc2)ccc1OC | -0.113 |
| CCOC(=O)Nc1nc2ccccc2s1 | 0.216 |
